Experimental data taken from the supplement of paper PMC10441789.
Some of the results follow. Antibody binding of pooled human sera (four to six donors per pool; dilution not stated) to peptides of the Trypanosoma cruzi antigen TSSA on microarrays. Quantile-normalised fluorescence in arbitrary units, mean of duplicate arrays; higher = more binding. No active / inactive call. The uninfected pools are read here as the healthy donors of the same country. The strongest signals lie near the top of the scale (about 60,000).

Legend:
Test in all cases: antibody binding signal (normalised fluorescence) (arbitrary fluorescence units); higher = stronger serum antibody binding to peptide
[1] = tested on: pooled sera of chronic Chagas disease patients, Argentina
Description: (§1)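 Microarray of 15-residue peptides over residues 30-55 of Trypanosoma cruzi TSSAII, each with 1 to 10 substitutions at naturally variable positions, probed with one serum pool per country.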

[2] = tested on: pooled sera of chronic Chagas disease patients, Bolivia
Description: as §1

[3] = tested on: pooled sera of chronic Chagas disease patients, Brazil
Description: as §1

[4] = tested on: pooled sera of chronic Chagas disease patients, Colombia
Description: as §1

[5] = tested on: pooled sera of chronic Chagas disease patients, Mexico
Description: as §1

[6] = tested on: pooled sera of chronic Chagas disease patients, USA
Description: as §1

[7] = tested on: pooled sera of uninfected people, Argentina
Description: as §1

[8] = tested on: pooled sera of uninfected people, Bolivia
Description: as §1

[9] = tested on: pooled sera of uninfected people, Brazil
Description: as §1

[10] = tested on: pooled sera of uninfected people, Colombia
Description: as §1

[11] = tested on: pooled sera of uninfected people, Mexico
Description: as §1

[12] = tested on: pooled sera of uninfected people, USA
Description: as §1

Sequence | antibody binding signal [1] | antibody binding signal [2] | antibody binding signal [3] | antibody binding signal [4] | antibody binding signal [5] | antibody binding signal [6] | antibody binding signal [7] | antibody binding signal [8] | antibody binding signal [9] | antibody binding signal [10] | antibody binding signal [11] | antibody binding signal [12]
EKKPATGGTPSPSGA | 1370 | 404 | 569 | 3190 | 765 | 850 | 413 | 864 | 954 | 240 | 176 | 710
NKPATGEAPSQSGAS | 26000 | 47900 | 47500 | 220 | 184 | 40400 | 1050 | 1270 | 536 | 302 | 424 | 957
TSSTPPSGKDKKTAA | 24600 | 1490 | 740 | 465 | 39100 | 650 | 454 | 318 | 97.8 | 154 | 97 | 169
TDNKTATGEAPSPPG | 10700 | 30900 | 20900 | 213 | 255 | 19300 | 144 | 238 | 212 | 152 | 108 | 123
SGTENKPATGETPSQ | 39000 | 33800 | 41500 | 218 | 410 | 30600 | 868 | 1220 | 337 | 122 | 1820 | 140
KDKKAAAGETPSQSG | 162 | 272 | 916 | 191 | 152 | 415 | 124 | 89.6 | 86.5 | 136 | 89.5 | 107
STPPSGKENKAAAGG | 28100 | 3510 | 10900 | 1070 | 4530 | 3850 | 3200 | 1190 | 145 | 867 | 145 | 365
SGTDNKAAAGETPSQ | 296 | 383 | 41200 | 405 | 200 | 226 | 87.1 | 642 | 1250 | 136 | 138 | 171
SGTENKAATGGTPSP | 42600 | 13900 | 18700 | 745 | 767 | 5180 | 533 | 378 | 194 | 381 | 164 | 108
SGKDNKTAAGETPSQ | 1010 | 443 | 1950 | 3420 | 1040 | 3210 | 283 | 345 | 166 | 692 | 206 | 163
TISTPPSGKENKTAA | 17000 | 3140 | 9180 | 1380 | 3490 | 3110 | 4080 | 1390 | 274 | 724 | 274 | 621
GKDKKTATGGTPSPS | 447 | 229 | 221 | 1340 | 676 | 1530 | 182 | 93.1 | 101 | 126 | 78.2 | 94.6
PSGKEKKPATGEAPS | 42700 | 12100 | 38700 | 4290 | 4190 | 33100 | 1090 | 665 | 117 | 268 | 99.1 | 229
DNKTAAGETPSQPGA | 714 | 4120 | 32800 | 602 | 269 | 1030 | 141 | 920 | 274 | 310 | 321 | 189
KDKKTAAGEAPSPPG | 176 | 236 | 285 | 274 | 194 | 4030 | 116 | 95.2 | 118 | 596 | 84.4 | 119
NKAAAGGAPSPSGAS | 413 | 261 | 3210 | 4560 | 619 | 980 | 886 | 929 | 302 | 369 | 196 | 1110
KDNKAATGEAPSQPG | 23800 | 23700 | 36400 | 207 | 232 | 22300 | 381 | 825 | 236 | 154 | 103 | 162
GKENKTATGEAPSQP | 23600 | 10600 | 40400 | 16800 | 13600 | 20700 | 531 | 168 | 139 | 254 | 232 | 150
NKPATGGTPSQSGAS | 563 | 563 | 3580 | 382 | 510 | 402 | 767 | 1420 | 582 | 472 | 736 | 1210
GTDNKAAAGEAPSPP | 452 | 317 | 33500 | 226 | 192 | 13500 | 112 | 642 | 1360 | 81.7 | 129 | 88.5
